Experimental data as given in PMC4336329 (PLoS ONE, 2015).
Out of some 310,000 compounds screened, about 14,000 (4.5%) showed an effect of 50% or more. The effect is printed as a negative number. The list shows a part of the results.

The compounds below were run against human ether-à-go-go-related gene (hERG) potassium channel (human, UniProt Q12809) (assay: primary screen, population patch clamp on CHO cells stably expressing hERG).
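Note: peak tail current of the secondary pulse compared with the same well before compound.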

human ether-à-go-go-related gene (hERG) potassium channel, sequence (Q12809 whole entry, looked up): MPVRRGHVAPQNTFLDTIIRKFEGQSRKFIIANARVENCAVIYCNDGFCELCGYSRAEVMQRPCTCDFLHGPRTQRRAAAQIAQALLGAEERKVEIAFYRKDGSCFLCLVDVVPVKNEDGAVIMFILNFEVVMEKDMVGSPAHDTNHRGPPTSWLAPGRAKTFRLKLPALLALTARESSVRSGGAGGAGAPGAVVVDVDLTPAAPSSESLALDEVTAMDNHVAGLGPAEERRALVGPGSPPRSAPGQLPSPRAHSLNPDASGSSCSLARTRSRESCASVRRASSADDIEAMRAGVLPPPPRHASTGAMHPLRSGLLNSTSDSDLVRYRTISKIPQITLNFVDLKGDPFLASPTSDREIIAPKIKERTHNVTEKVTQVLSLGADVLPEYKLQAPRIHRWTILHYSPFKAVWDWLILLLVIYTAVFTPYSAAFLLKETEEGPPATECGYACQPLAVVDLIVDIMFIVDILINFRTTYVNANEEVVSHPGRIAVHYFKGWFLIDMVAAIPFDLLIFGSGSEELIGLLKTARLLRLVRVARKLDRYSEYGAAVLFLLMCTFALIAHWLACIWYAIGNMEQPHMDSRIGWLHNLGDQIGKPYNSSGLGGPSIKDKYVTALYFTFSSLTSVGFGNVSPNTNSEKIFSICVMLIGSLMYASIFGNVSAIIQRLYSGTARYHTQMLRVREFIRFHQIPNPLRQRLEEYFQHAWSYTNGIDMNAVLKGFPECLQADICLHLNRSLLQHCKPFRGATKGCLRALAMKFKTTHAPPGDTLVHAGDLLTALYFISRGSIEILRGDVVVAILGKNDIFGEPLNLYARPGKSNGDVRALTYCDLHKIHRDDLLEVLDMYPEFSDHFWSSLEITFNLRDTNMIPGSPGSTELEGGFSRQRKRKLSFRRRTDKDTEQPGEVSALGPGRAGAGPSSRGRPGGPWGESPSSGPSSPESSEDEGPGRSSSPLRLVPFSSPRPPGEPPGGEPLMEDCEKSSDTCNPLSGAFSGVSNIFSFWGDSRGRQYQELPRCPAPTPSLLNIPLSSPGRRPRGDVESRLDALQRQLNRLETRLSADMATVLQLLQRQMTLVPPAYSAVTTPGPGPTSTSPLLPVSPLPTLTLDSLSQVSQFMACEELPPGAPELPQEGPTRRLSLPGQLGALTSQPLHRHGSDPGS

`CCOc1cc(Br)ccc1S(=O)(=O)NCc1ccccc1` was tested. Which “hERG current change (%, negative = inhibition) at 10uM” value did it give?
Its value is -30.3%.

With `COC(=O)c1ccc(CSCc2ccc(C(=O)OC)o2)o1` as the compound, how does the “hERG current change (%, negative = inhibition) at 10uM” value read?
The value was 13%.

For `COC(=O)c1ccc(C)c(NC(=O)CN(c2ccc3c(c2)OCO3)S(C)(=O)=O)c1`, which “hERG current change (%, negative = inhibition) at 10uM” value is on record?
The value was 6.5%.

Which “hERG current change (%, negative = inhibition) at 10uM” value does the source give for `Cc1ccc(S(=O)(=O)CCCS(=O)(=O)c2ccc(C)cc2)cc1` here?
Its value is -21.3%.

Which “hERG current change (%, negative = inhibition) at 10uM” value does the source give for `CN(C)C(=O)CSc1nc(-c2ccccc2)nc2c1CCCC2` here?
Its value is -5.09%.

Which “hERG current change (%, negative = inhibition) at 10uM” value does the source give for `COc1cc(NS(=O)(=O)c2ccc3c(c2)oc(=O)n3C)cc(OC)c1OC` here?
The value was 14.8%.

Which “hERG current change (%, negative = inhibition) at 10uM” value does the source give for `Cc1nnc(NC(=O)CCSc2ccc(Cl)cc2)s1` here?
The value was -6.36%.

Which “hERG current change (%, negative = inhibition) at 10uM” value does the source give for `Cc1cccc(N2CCN(CC(O)COCc3cccs3)CC2)c1C` (stereo not drawn) here?
Its value is -70.8%.

How did the “hERG current change (%, negative = inhibition) at 10uM” value turn out when `CCCCN(CC)C(=O)c1oc2ccc(S(=O)(=O)N3CCCC3)cc2c1C` was run?
Its value is -33.2%.

Which “hERG current change (%, negative = inhibition) at 10uM” value does the source give for `COc1ccc(CCNCC(=O)Nc2c(C)cc(C)cc2C)cc1OC.Cl` here?
The value was -0.0819%.

How did the “hERG current change (%, negative = inhibition) at 10uM” value turn out when `COc1ccc2[nH]c(=S)[nH]c2c1` was run?
The value was 18%.

How did the “hERG current change (%, negative = inhibition) at 10uM” value turn out when `COc1ccc(OC)c(CNC(=O)Cc2c(C(=O)O)[nH]c3ccccc23)c1` was run?
Its value is 15.3%.

For `Cc1onc(-c2ccccc2Cl)c1C(=O)N1CCN=C1SCc1cccnc1`, which “hERG current change (%, negative = inhibition) at 10uM” value is on record?
The value was 1.58%.

`CC1CCN(C(=O)CSc2nc3c(cnn3-c3ccc(Cl)cc3)c(=O)[nH]2)CC1` was tested. Which “hERG current change (%, negative = inhibition) at 10uM” value did it give?
The value was -2.48%.

With `COC(=O)c1ccc(CSc2nc3sc(C(=O)O)c(C)c3c(=O)[nH]2)cc1` as the compound, how does the “hERG current change (%, negative = inhibition) at 10uM” value read?
The value was 9%.

`COc1cccc(-c2nn(-c3ccccc3)cc2CN(C)Cc2ccno2)c1` was tested. Which “hERG current change (%, negative = inhibition) at 10uM” value did it give?
The value was 3.65%.

`Cc1ccc(-c2nc(-c3ccncc3)no2)cc1Cl` was tested. Which “hERG current change (%, negative = inhibition) at 10uM” value did it give?
Its value is 15.9%.

How did the “hERG current change (%, negative = inhibition) at 10uM” value turn out when `Cc1cc(C)nc(-n2nc(C)c(Br)c2Nc2ccc(Br)cc2)n1` was run?
Its value is 9.02%.

Which “hERG current change (%, negative = inhibition) at 10uM” value does the source give for `CC(C)(C)c1ccc(/C=N/NC(=S)NC2CCCCC2)cc1` here?
The value was 9.8%.

Which “hERG current change (%, negative = inhibition) at 10uM” value does the source give for `CC(C)(C)C(=O)CSc1nc2ccccc2o1` here?
The value was 0.914%.

`O=C(NNc1c(Cl)cccc1Cl)c1ccno1` was tested. Which “hERG current change (%, negative = inhibition) at 10uM” value did it give?
The value was 14.5%.

Which “hERG current change (%, negative = inhibition) at 10uM” value does the source give for `COC(=O)c1cc(-c2ccc(OC)cc2)on1` here?
Its value is 11.4%.

Which “hERG current change (%, negative = inhibition) at 10uM” value does the source give for `CC(C(=O)N(C)CC(=O)Nc1ccccc1C(F)(F)F)N1C(=O)c2ccccc2C1=O` (stereo not drawn) here?
Its value is -10.7%.

With `O=C(O)CCC(=O)Nc1ccc(S(=O)(=O)Nc2nccs2)cc1` as the compound, how does the “hERG current change (%, negative = inhibition) at 10uM” value read?
The value was 0.43%.

For `Cc1ccc(CNC(=O)CN(C)S(=O)(=O)c2cccc3cccnc23)cc1`, which “hERG current change (%, negative = inhibition) at 10uM” value is on record?
Its value is 3.9%.

How did the “hERG current change (%, negative = inhibition) at 10uM” value turn out when `CCC(=NCc1ccco1)c1c(O)n(-c2ccc(Cl)cc2)c(=O)[nH]c1=O` was run?
Its value is 8.14%.

How did the “hERG current change (%, negative = inhibition) at 10uM” value turn out when `CCOc1cc(C(=O)N/N=C/C2CC=CCC2)cc(OCC)c1OCC` (stereo not drawn) was run?
The value was -29.2%.

`CCN1CCN(C(=O)c2ccc(CSc3ccc(C)cc3)cc2)CC1` was tested. Which “hERG current change (%, negative = inhibition) at 10uM” value did it give?
Its value is -63.6%.

With `Cc1ccc(/C=N/NC(=O)CSc2nc3ccccc3s2)o1` as the compound, how does the “hERG current change (%, negative = inhibition) at 10uM” value read?
Its value is -7.71%.

With `COc1ccc(C(=O)NC2CCCCCC2)cc1S(=O)(=O)N1CCOCC1` as the compound, how does the “hERG current change (%, negative = inhibition) at 10uM” value read?
The value was 5.42%.

How did the “hERG current change (%, negative = inhibition) at 10uM” value turn out when `Cc1[nH]c2ccc(C(=O)OCC(=O)NC3(C#N)CCCCC3)cc2c1C` was run?
The value was -16.2%.

With `O=C(NCCc1ccccc1)c1ccccc1NS(=O)(=O)N1CCCC1` as the compound, how does the “hERG current change (%, negative = inhibition) at 10uM” value read?
The value was -13.7%.

With `CSc1ccccc1NC(=O)C(C)N1C(=O)c2ccccc2S1(=O)=O` (stereo not drawn) as the compound, how does the “hERG current change (%, negative = inhibition) at 10uM” value read?
The value was 7.26%.

How did the “hERG current change (%, negative = inhibition) at 10uM” value turn out when `O=C(CSc1nc2ccccc2n1Cc1ccc(Cl)cc1)N/N=C/c1ccccc1C(=O)O` was run?
Its value is 15.3%.

`O=C(NC1CC2CCCC(C1)N2C(=S)Nc1ccc(Cl)cc1)C1CC1` (stereo not drawn) was tested. Which “hERG current change (%, negative = inhibition) at 10uM” value did it give?
The value was -0.281%.

Which “hERG current change (%, negative = inhibition) at 10uM” value does the source give for `Cc1ccc(-c2noc(CCC(=O)NCc3ccco3)n2)cc1` here?
The value was 0.976%.

How did the “hERG current change (%, negative = inhibition) at 10uM” value turn out when `COc1ccc(NC(=O)COC(=O)c2cc3c(s2)CCC3)cc1` was run?
Its value is -26.6%.

With `CC(C)OCCCN1CC(=O)N2C(c3cccc([N+](=O)[O-])c3)c3[nH]c4ccccc4c3C[C@H]2C1=O` (stereo partly drawn) as the compound, how does the “hERG current change (%, negative = inhibition) at 10uM” value read?
Its value is -24.5%.

With `COc1cc2cc(C(=O)NCCc3ccccc3)[nH]c2cc1OC` as the compound, how does the “hERG current change (%, negative = inhibition) at 10uM” value read?
Its value is 19.2%.

Which “hERG current change (%, negative = inhibition) at 10uM” value does the source give for `Cc1cccc(NC(=S)N(CCCN2CCCC2)Cc2cccn2Cc2ccc(Cl)cc2)c1` here?
The value was -71.8%.

`COc1ccc(NC(=O)CCOc2ccccc2C)cc1S(=O)(=O)N1CCCCC1` was tested. Which “hERG current change (%, negative = inhibition) at 10uM” value did it give?
The value was -13.6%.

How did the “hERG current change (%, negative = inhibition) at 10uM” value turn out when `CC(C)C(=O)N1C2CCC1CC(O)(c1ccc(F)cc1)C2` (stereo not drawn) was run?
The value was 14.3%.

With `Cc1ccc(C)n1-c1nccc(-c2ccco2)n1` as the compound, how does the “hERG current change (%, negative = inhibition) at 10uM” value read?
Its value is 14.3%.

`OCC[C@H]1C[C@H](O)[C@@H](O)[C@@]2(Cc3ccccc3O2)O1` was tested. Which “hERG current change (%, negative = inhibition) at 10uM” value did it give?
Its value is 12%.

With `CN(c1ccccc1)c1nc(N2CCCC2)nc(-n2ccnc2)n1` as the compound, how does the “hERG current change (%, negative = inhibition) at 10uM” value read?
Its value is -19.5%.
